Assay results from patent publication US20080311122A1, “Antagonists of Hmgb1 and/or Rage and Methods of Use Thereof” (Medimmune, LLC, priority 2005, published 2008).

Key:
[1] = system: mouse CLP model of sepsis; test: Cecal ligation and puncture (CLP) model of sepsis; assay type: in vivo
Experimental: Anti-HMGB1 in Sepsis: To establish live intra-abdominal infection and sepsis, Balb/C mice (9-11 per group) were subjected to the CLP procedure as described previously (Fink and Heard, 1990, J Surg Res 49:186-196; Wichmann et al., 1996, J Surg Res 65, 109-114). After anesthesia with an intramuscular injection of ketamine (75 mg/kg, Fort Dodge Laboratories, Fort Dodge, Iowa) and xylazine (20 mg/kg, Bochringer Ingelheim), a 15-mm midline incision was made to expose the cecum. After ligation 5.0 mm from the tip, the cecal stump was punctured once with a 22-gauge needle, and small amount of stool (1-mm length) was extruded. The cecum was placed back into its normal intra-abdominal position, and the wound was closed with two layers of running suture. All animals received saline-solution (0.9% s.c., 20 ml/kg of body weight) resuscitation, and a single dose of antibiotic (0.5 mg of imipenem per mouse in 200 μl of sterile saline injected s.c.) (Primaxin, Merck) 30 min after surgery.
Anti-HMG1 antibodies or isotype control antibodies (50 μg/mouse in a 200 μl volume), were administered intraperitoneally at 24 and 48 hours, post surgery. In certain follow up experiments anti-HMG1 antibodies or isotype control antibodies (8 mg/kg) were administered intraperitoneally at 24 hours, post surgery (FIG. 11C-D). […] The survival of the mice was monitored twice daily for a total of 14 days. […]

[2] = system: native activated HMG1 stimulated IL-6 release from human PBMCs; test: Inhibition of cytokine release from PBMCs, native activated HMG1; assay type: cell-based
Experimental: Inhibition of Cytokine Release: Human peripheral blood mononuclear cells (PBMCs) were isolated from the peripheral blood of healthy volunteers by a density gradient centrifugation. Freshly drawn heparinized whole blood was mixed with two volume of PBS. The diluted blood was gently layered on the surface of Histopaque-1077 (Sigma-Aldrich) and centrifuged at 400×g, at RT for 30 minute. PBMCs were collected from the interface between the plasma and the density gradient solution. After washing in PBS 3×, the purified PBMCs were resuspended in RPMI-1640 medium (GIBCO BRL) containing 100 U/ml penicillin, 100 μg/ml streptomycin and […] β-mercaptoethanol. 1×10^5 of cells was added in each well of 96-well cell culture plates. […]
The culture media were analyzed for inflammatory cytokines using Beadlyte human multi-cytokine flex kit from Upstate by Luminex 100 (Luminex Corp.). Proinflammatory cytokines TNF-α, IL-6, IL-1β and IL-12 (p40) were measured for cells stimulated with recombinant HMG1. In addition, TNF-α, IL-6, IL-1β and IL-8 were measured for cells stimulated with native activated HMG1.
Cytokine release data is presented as mean of triplicates±standard deviations. […] It was calculated by PRISM program.

HMG2 = target: T1, HMG2 (Bos taurus, UniProt P40673); test: Binding to HMG1 vs. HMG2 ELISA; parameters: species or system calf; conditions: immobilized antigen
T1 construct: from tissue; host or cells: calf thymus (as read from the sentence)
T1 sequence (P40673 1-209): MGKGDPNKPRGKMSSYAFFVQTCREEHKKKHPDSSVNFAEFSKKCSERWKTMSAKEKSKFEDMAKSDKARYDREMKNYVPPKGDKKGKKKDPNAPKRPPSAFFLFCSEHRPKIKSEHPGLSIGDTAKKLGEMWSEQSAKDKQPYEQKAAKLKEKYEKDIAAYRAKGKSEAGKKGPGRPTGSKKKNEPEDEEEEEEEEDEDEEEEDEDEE
Experimental: Binding to HMG1 vs. HMG2: Ultra high-binding ELISA plates (ThermoLab systems, #3855) were coated with either 5 ug/mL of Calf thymus HMGB1 or HMBG2 diluted in 10 mM Phosphate buffered saline (PBS), pH 7.2 and incubate overnight at 4 degrees. The plates were washed twice with Ca and Mg free PBS and 100 microliters of anti-HMGB1 antibody diluted in 10 mM PBS, pH 7.2+1% bovine serum albumin (BSA) to a final concentration of 10 ug/mL was added to each well and the plates were incubated 1 hour at room temperature. The wells were washed three times with 100 μl of PBS, pH 7.2. HRP labeled goat-anti-human IgG Kappa-chain (KPL, #14-10-10) and goat-anti-human IgG Lambda-chain (KPL, #14-10-11) were diluted in 10 mM PBS+1% BSA 1:1000 and 100 μl were added to each well and incubated for 1 hour at room temperature. The wells were then washed three times with 100 μl of PBS, pH 7.2. OPD substrate (Pierce chemical company, #34006) was prepared following the manufacturers instructions and 100 μl of prepared substrate was added to each well and the plates incubated at room temperature in the dark for 20-30 minutes. The reaction was stopped with the addition of 100 μl of 2M H2SO4, and the plates read on a plate reader at a wavelength of 490 nm.

B1: S6: human anti-HMG1 antibody, ATCC PTA-6143; VL/VH aa SEQ ID NO: 9/11 (antibody, listed as Homo sapiens, V domains shown)
VH: EVQLLESGGGLVQPGGSLRLSCAASGFTFSWYDMSWVRQAPGKGLEWVSRISPSGGYTMYADSVKGRFTISRDNSKNTLYLQMNSLRAEDTAVYYCARLEVGATSGGTAFDIWGQGTMVTVSS
VL: [gap - about 100 residues]
B1 was tested, and the “protection in the CLP model” value ([1]; numerous experiments) was “at least 30%”, the “in vivo CLP” value ([1]; percent protection, isotype control subtracted) was 35-50% and the “block of IL-6 release induced by native activated HMG1” value [2] was “less effective”. The “relative binding to HMG1 and HMG2” value (HMG2) was “specific for HMG1”.
